Several values for one entry are separate records, joined by “and”; a condition that tells them apart may be missing. Identical values can stand only once. Hit rate of the full screen: of about 16,000 compounds, about 40 (0.2%) were called active. Not shown: some 1% with an inconclusive outcome. Calls follow the shape of the dose curve; as a rule, active = well fitted activation curve with a large enough effect; inconclusive = small, poorly fitted or top-dose-only effect, or another doubt; inactive = no such curve, though single readings can be large or run the other way. The list shows a part of the results.
These compounds were tested against Rap guanine nucleotide exchange factor 4 (Homo sapiens) (UniProt Q8WZA2) (assay: Validation qHTS for agonist of cAMP-regulated guanine nucleotide exchange factor 4 (EPAC2)). Details: EPAC2 Rap1B BODIPY-GDP exchange, fluorescence; activation: stronger effect = higher value.
Summary of the method: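 Signal normalized against 6.5 mM cAMP as agonist control. Mix of EPAC2 (100 nM), RAP1B-BODIPY-GDP (250 nM) and GDP (50 uM) was read kinetically at 480/540 nm, every 5 min over 30 min, after 5 min room-temperature incubation with compound.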
% is scaled to controls: 0 for no effect and ±100 for the full control effect.
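Also: exchange makes BODIPY-GDP fluorescence drop when released from Rap1B; series mostly up to about 150 µM.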

Sequence of UniProt Q8WZA2 (Q8WZA2 whole entry, looked up): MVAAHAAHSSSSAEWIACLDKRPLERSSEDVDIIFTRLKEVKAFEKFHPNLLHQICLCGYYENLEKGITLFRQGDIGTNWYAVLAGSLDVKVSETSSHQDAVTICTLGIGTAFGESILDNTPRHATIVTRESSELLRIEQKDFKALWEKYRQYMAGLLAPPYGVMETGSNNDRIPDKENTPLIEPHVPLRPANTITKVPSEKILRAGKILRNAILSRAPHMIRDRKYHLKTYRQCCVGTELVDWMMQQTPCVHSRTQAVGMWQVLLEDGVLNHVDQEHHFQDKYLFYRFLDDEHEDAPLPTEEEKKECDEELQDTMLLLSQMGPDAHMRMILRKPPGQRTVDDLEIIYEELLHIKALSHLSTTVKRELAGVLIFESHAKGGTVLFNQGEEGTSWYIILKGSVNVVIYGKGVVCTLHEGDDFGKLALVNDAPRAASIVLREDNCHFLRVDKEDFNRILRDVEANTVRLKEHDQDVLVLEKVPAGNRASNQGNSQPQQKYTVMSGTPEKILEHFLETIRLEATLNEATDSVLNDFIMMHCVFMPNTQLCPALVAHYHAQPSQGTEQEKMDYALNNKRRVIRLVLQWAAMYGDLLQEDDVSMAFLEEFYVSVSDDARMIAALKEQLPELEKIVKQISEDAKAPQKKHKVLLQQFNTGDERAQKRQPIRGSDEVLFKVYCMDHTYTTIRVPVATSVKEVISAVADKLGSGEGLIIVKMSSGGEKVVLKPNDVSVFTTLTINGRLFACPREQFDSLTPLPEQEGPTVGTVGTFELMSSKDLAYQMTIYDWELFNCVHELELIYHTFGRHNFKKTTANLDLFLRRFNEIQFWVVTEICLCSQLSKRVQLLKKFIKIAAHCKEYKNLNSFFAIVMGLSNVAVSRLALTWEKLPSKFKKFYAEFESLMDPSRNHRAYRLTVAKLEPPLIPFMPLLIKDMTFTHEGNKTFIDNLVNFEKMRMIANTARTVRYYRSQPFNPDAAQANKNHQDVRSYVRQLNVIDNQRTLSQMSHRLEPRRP

activation, inactive:
COc1cc(O)c(C(=O)c2ccccc2)cc1S(=O)(=O)O -1.07%, CCCCC(CC)COC(=O)c1ccc(N(C)C)cc1 (stereo not given) -8.25%, COC(=O)C1CCN(Cc2ccc3c(c2)CN(C(=O)C(C)N2CCOCC2)CCO3)CC1 (stereo not given) -19.8%, C/C=C1\C2C=C(C)CC1(N)c1ccc(=O)[nH]c1C2 (stereo not given) -0.903%, Cc1ccnc2ccc(Br)cc12 -17.7%, Cc1o[nH]c(=O)c1CC[C@H](N)C(=O)O -22.7%, COc1cccc2c(=O)c3ccccc3oc12 -1.88%, COc1cc(OC)c2c(=O)c(O)c(-c3ccc(OC)c(OC)c3)oc2c1 -19.5%, CNCc1ccccc1 -4.4%, Nc1nc(NC2CC2)c2ncn([C@@H]3C=C[C@@H](CO)C3)c2n1 -13.6%, COc1ccc(NC(=O)N2CCC3(CC2)CCN(C(=O)c2cccc(F)c2)CC3)cc1 -5.8%, C=C1C[C@@]23CC[C@H]4[C@@](C)(CCC[C@@]4(C)C(=O)O)[C@@H]2CC[C@]1(O)C3 -18.8%, O=C(NNCNNC(=O)c1ccncc1)c1ccncc1 -9.69%, O=C(O)CC(O)(CC(=O)O)C(=O)O -6.86% and 0.407%, CO[C@H]1C=CO[C@@]2(C)Oc3c(C)c(O)c4c(O)c(c(/C=N/N5CCN(C6CCCC6)CC5)c(O)c4c3C2=O)NC(=O)/C(C)=C\C=C[C@H](C)[C@H](O)[C@@H](C)[C@@H](O)[C@@H](C)[C@H](OC(C)=O)[C@@H]1C -35.8%, COc1ccc(/C=C/C(=O)NCC2Cc3cc(Cl)cc(-c4ncccn4)c3O2)cc1 (stereo not given) 11.2%, COc1ccccc1CN1CCCC2(CCN(C(=O)c3ccncc3)CC2)C1 -15.3%, O=C(Cc1nc2ccccc2[nH]1)N1CCC(n2c(C3CCC3)nc3cccnc32)CC1 -6.4%, C[C@@H]1CN(Cc2ccc3c(c2)CN(Cc2coc4ccccc4c2=O)CCO3)C[C@H](C)O1 -3.32%, CC1=NN(c2ccc([N+](=O)[O-])cc2)C(=O)C1[N+](=O)[O-] (stereo not given) -14.7%, COC(=O)c1ccccc1C(=O)N1CCOc2ccc(CN3CCN(c4ccccn4)CC3)cc2C1 -18.8%, N[C@@H](Cc1cc(I)c(Oc2cc(I)c(O)c(I)c2)c(I)c1)C(=O)O -19.7% and 9.4%, CN1CCN(c2ncnc3ccc(-c4cccnc4)cc23)CC1 -15.8%, CC1(C)CCC(C)(C)c2cc(NC(=O)c3ccc(C(=O)O)cc3)ccc21 -26.7%, Cc1cc(=O)oc2cc(O)c(O)cc12 -6.69%, CN(C)Cc1ccccc1-c1cc(N(C)C)ncn1 -5.71%, COc1ccc(C(=O)N2CCC3(CCN(Cc4ccccc4OC)CC3)CC2)cc1 1.68%, COc1cccc(Cn2c(=O)c(-c3ccc(F)c(F)c3)nc3cncnc32)c1 -6.63%, CCCCCCCCCCCCCCCC[n+]1ccc(C)cc1 -51%, CN(C)c1ccc(/C=C/c2c(Cl)cnc3ccccc23)cc1 -18%, C[C@H](CCC(=O)O)[C@H]1CC[C@H]2[C@H]3C(CC[C@]12C)[C@@]1(C)CC[C@@H](O)C[C@H]1C[C@H]3O (stereo not given in full) -0.35% and 6.44%, Nc1ccc(/C=C/c2ccnc3ccccc23)c(N)c1 -30.4%, O=C(C[N+]1(CC(O)c2ccccc2)CCCCC1)c1ccccc1 (stereo not given) -11.8%, COc1cc2c(cc1O)C(Cc1ccc(O)cc1)N(C)CC2 (stereo not given) -8%, COc1ncc2nc(-c3ccc(F)cc3)c(=O)n(C[C@H]3CCCO3)c2n1 -1.57%, COc1cccc(CC(=O)NCC2Cc3cc(Cl)cc(-c4ncccn4)c3O2)c1 (stereo not given) -5.55%, COc1cc(CNc2nc(C)c(-c3ccn(CC4CCCN(C)C4)n3)s2)ccc1F (stereo not given) -16.3%, CC(=O)Nc1ccc(S[C@@H](CCN2CC[C@H](O)CCC2=O)c2ccccc2)cc1 -1.76%, O=C(c1n[nH]c2c1CCCC2)N1CCOc2ccc(C(O)C3CCCCC3)cc2C1 (stereo not given) -5.66%, Cn1cc(-c2nc3cnc(N4CCOCC4)nc3n(C3CC3)c2=O)c2ccccc21 -7.67%, Cc1cccc(CNc2cc(-c3c(C)noc3C)ncn2)c1 -5.53%, O=c1cc(-c2ccc(O)c(O)c2)oc2cc(OC3OC(CO)C(O)C(O)C3O)cc(O)c12 (stereo not given) -12.1%, OCC(O)COc1ccc(Cl)cc1 (stereo not given) -15.5%, Cc1ccccc1-c1ccc(CN2CCc3nnc(C(NS(C)(=O)=O)C(C)C)n3CC2)cc1 (stereo not given) -3.43%, O=c1cnc2cnc(N3CCOCC3)nc2n1Cc1ccc(F)cc1 -17.5%, CC(C)CN1CC2(CCN(S(=O)(=O)c3ccccc3)CC2)C1 -1.4%, CC(=O)NCC(=O)NCC1Cc2cc(C)cc(-c3ccccn3)c2O1 (stereo not given) 0.493%, Cc1nn(-c2ccccc2)c(C)c1/C=N/N1CCN(Cc2ccccc2)CC1 -35.7%, C=C1C(=C/C=C2\CCC[C@]3(C)[C@@H]([C@H](C)/C=C/[C@@H](O)C4CC4)CC[C@@H]23)C[C@@H](O)C[C@@H]1O 1.19%, O=C(c1csnn1)N1CCC2(CCCN(c3ncccn3)C2)CC1 0.753%, Nc1ncnc2c1ncn2[C@@H]1O[C@H](CO)[C@@H](O)[C@H]1O -9.07% and 5.69% and -10.6%, COc1cccc(C(=O)NCC2Cc3c(F)ccc(-c4ncccn4)c3O2)c1OC (stereo not given) 1.02%, O=[N+]([O-])c1cccc(/C=C/c2ccccc2)c1 1.58%, c1ccc(CNc2nc(-c3ccc4c(c3)OCO4)nc3ccccc23)cc1 3.01%, COc1cc(=O)n2c(c1C(=O)NC(C)c1ccco1)CCN(Cc1cc(C)cc(C)c1)CC2 (stereo not given) -2.14%
